Values marked as one replicate rest on one cluster of the flow cell; about a third of the high ones do not repeat.
Tested on: ATP
Assay: switch fluorescence ratio, 500 uM ATP over buffer (Cy3 cluster intensity, sum of 5 cycles each) (fold (ratio)); higher = stronger signal-on switching upon ATP binding; sequences stand for … in TCGTCGGCAGCGTCAGATGTGTATAAGAGACAGTTTTTTTTTTTTTTTTTTTTTTTTT…TC
Details: aptamer strand: ATP DNA aptamer (quencher-CACCTGGGGGAGTATTGCGGAGGAAGG + anchor), 100 nM annealed; ATP concentration: 500 uM; one replicate
In short: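 Per cluster, summed Cy3 intensity from the target cycles was divided by that from the buffer cycles to give the fluorescence ratio, then averaged per switch-domain sequence. Clusters outside 100-1000 RFU were excluded. The Cy3-labelled switching-strand clusters, on a modified Illumina MiSeq flow-cell, were annealed to 100 nM quencher-labelled ATP aptamer and imaged in selection buffer, then after 15 min with 500 uM ATP at 22 °C, for five cycles with NaOH stripping and re-annealing between them.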
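Also: ATP exposure 15 min at 22 °C before imaging.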

| Sequence | switch fluorescence ratio |
| --- | --- |
| CATAACATGC | 1.1 |
| CATAAGAGCA | 1.04 |
| CATAAGAGGT | 0.993 |
| CATAAGGGCG | 1.04 |
| CATAAGGGGG | 1 |
| CATAATATAG | 1 |
| CATAATCTGG | 0.996 |
| CATACACGTT | 1.04 |
| CATACAGGGT | 1.11 |
| CATACCAAAC | 1.94 |
| CATACGGACA | 1.57 |
| CATACGTCTA | 1.32 |
| CATACTATG | 0.971 |
| CATACTCTTA | 0.981 |
| CATAGAATTC | 1.02 |
| CATAGACATC | 1.01 |
| CATAGACTTG | 1.01 |
| CATAGAGCGA | 1.01 |
| CATAGATTTA | 0.996 |
| CATAGCTCGC | 0.963 |
| CATAGGACAT | 0.968 |
| CATAGTGGGC | 0.96 |
| CATAGTTTAC | 1.04 |
| CATATAAGTG | 1.01 |
| CATATAATTA | 1.01 |

| Sequence | switch fluorescence ratio |
| --- | --- |
| CATATAGGCC | 0.946 |
| CATATCCTAT | 1.03 |
| CATATCTATG | 0.994 |
| CATATTAAAA | 0.992 |
| CATATTAGGG | 1.01 |
| CATATTATAC | 1.1 |
| CATATTGCCA | 1.01 |
| CATATTGGTT | 0.968 |
| CATCAAAATG | 0.995 |
| CATCAACGAA | 0.979 |
| CATCAATAGT | 1.08 |
| CATCCCATCT | 1.12 |
| CATCCCCCTT | 1.05 |
| CATCCTGATT | 0.996 |
| CATCCTTCGG | 1.05 |
| CATCGCGCG | 1.03 |
| CATCGGGGAG | 1.07 |
| CATCGTAACT | 1.06 |
| CATCGTTGTG | 1.01 |
| CATCTATAGG | 1.03 |
| CATCTCAAGC | 1.38 |
| CATCTCAAGT | 0.984 |
| CATCTTTTAT | 1 |
| CATGAAGAAG | 1.01 |
| CATGAAGAGT | 0.98 |

| Sequence | switch fluorescence ratio |
| --- | --- |
| CATGACAATT | 1.03 |
| CATGACAGGG | 1.01 |
| CATGAGATGA | 0.971 |
| CATGAGCATG | 1.07 |
| CATGAGCTGG | 1.02 |
| CATGAGGAGG | 0.997 |
| CATGAGGGGC | 0.967 |
| CATGATACTA | 1.01 |
| CATGATCCCC | 0.986 |
| CATGCATATC | 1.52 |
| CATGCATTTG | 0.973 |
| CATGCCACGT | 0.996 |
| CATGCCATCA | 0.976 |
| CATGCCCGTG | 0.988 |
| CATGCGTCGG | 0.97 |
| CATGCTATGC | 1.17 |
| CATGCTGGGA | 1.04 |
| CATGGATTC | 0.989 |
| CATGGCCCCA | 1.02 |
| CATGGCTCTG | 1.03 |
| CATGGCTGTT | 1.04 |
| CATGGGCTAA | 1.02 |
| CATGGGGCAG | 1 |
| CATGGGTTTC | 0.98 |
| CATGGTCAGA | 1.03 |

| Sequence | switch fluorescence ratio |
| --- | --- |
| CATGGTGAGA | 1.02 |
| CATGGTGTAC | 1.09 |
| CATGGTGTTC | 0.988 |
| CATGTATACG | 1.06 |
| CATGTATTCA | 1.01 |
| CATGTGACCG | 0.995 |
| CATGTGTTCC | 1.05 |
| CATGTTTCTT | 1.06 |
| CATTAACGTC | 1.13 |
| CATTAATAGC | 0.987 |
| CATTAATCCA | 1.04 |
| CATTACATTT | 0.954 |
| CATTACCTCG | 1.03 |
| CATTAGATCT | 1.05 |
| CATTAGTA | 1 |
| CATTAGTCCT | 1.03 |
| CATTATAGCT | 0.999 |
| CATTATTCAA | 0.996 |
| CATTCACGCC | 1.13 |
| CATTCATTCG | 1.08 |
| CATTCCGGCG | 1.63 |
| CATTCCTCGT | 1.44 |
| CATTCCTGAT | 1.01 |
| CATTCGAGCC | 1.01 |
| CATTCGTAAG | 1.07 |
